Reference: article PMC4336329 (PLoS ONE, 2015)
About 2,200 (0.71%) of roughly 310,000 compounds showed an effect of 50% or more. Effects have a minus sign here. The list shows a part of the results.

Target: human ether-à-go-go-related gene (hERG) potassium channel (human, UniProt Q12809)
Assay: primary screen, population patch clamp on CHO cells stably expressing hERG

human ether-à-go-go-related gene (hERG) potassium channel, sequence (Q12809 whole entry, looked up): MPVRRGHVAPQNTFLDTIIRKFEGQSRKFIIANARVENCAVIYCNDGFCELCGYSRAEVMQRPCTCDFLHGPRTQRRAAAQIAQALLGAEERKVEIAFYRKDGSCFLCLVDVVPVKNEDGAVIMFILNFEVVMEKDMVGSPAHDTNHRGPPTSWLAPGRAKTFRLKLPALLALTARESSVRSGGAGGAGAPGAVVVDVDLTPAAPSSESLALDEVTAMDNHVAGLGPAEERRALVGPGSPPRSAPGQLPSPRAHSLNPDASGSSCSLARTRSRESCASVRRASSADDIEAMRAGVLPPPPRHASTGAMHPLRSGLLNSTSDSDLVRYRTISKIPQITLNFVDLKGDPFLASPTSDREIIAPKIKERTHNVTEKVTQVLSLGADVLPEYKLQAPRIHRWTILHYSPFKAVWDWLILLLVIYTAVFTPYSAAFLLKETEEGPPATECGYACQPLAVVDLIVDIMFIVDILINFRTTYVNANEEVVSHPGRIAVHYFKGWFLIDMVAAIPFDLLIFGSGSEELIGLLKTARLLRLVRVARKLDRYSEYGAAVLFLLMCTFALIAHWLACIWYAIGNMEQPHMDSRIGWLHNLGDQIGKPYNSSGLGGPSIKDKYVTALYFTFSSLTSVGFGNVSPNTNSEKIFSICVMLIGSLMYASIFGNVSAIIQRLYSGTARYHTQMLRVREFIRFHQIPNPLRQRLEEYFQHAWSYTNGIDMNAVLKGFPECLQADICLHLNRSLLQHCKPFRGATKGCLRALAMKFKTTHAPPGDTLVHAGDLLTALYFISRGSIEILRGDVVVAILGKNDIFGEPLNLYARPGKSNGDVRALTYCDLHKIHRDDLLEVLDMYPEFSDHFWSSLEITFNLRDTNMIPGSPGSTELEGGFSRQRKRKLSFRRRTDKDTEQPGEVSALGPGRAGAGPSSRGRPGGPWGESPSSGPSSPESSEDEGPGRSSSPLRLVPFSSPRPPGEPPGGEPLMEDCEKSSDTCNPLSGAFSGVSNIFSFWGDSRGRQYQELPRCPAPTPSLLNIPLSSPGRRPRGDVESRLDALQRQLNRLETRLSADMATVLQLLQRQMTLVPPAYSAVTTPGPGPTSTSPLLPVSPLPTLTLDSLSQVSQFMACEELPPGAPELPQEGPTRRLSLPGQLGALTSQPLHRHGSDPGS

Row | SMILES | hERG current change (%, negative = inhibition) at 1uM [%]
1 | COc1cccc(C(C(=O)NC(C)(C)C)N(C(=O)CCC(=O)Nc2cc(C)on2)C2CC2)c1OC (stereo not drawn) | 17.1
2 | Cc1ccc(NC(=S)NNC(=O)c2nnn(-c3ccccc3)c2C)cc1 | 6.61
3 | CN(C)CCCNCC(=O)c1c(-c2ccccc2)n(C)c2ccccc12.O=C(O)C(=O)O | 0.676
4 | CC(=O)c1cccc(NC(=O)CCCNC(=O)c2ccc(Cl)cc2)c1 | 10.2
5 | COc1ccc(Cc2nc3ccc(C(=O)NC(C)C)cc3o2)cc1 | 9.31
6 | CC(C)(C)C(=O)N=C1SC2CS(=O)(=O)CC2N1c1ccc2c(c1)OCO2 (stereo not drawn) | -5.69
7 | O=C(NCc1ccc(F)cc1)C1CCCN(c2cnccn2)C1 (stereo not drawn) | -22.7
8 | COc1ccc(CNC(=O)CN2C(=O)NC(C)(c3cccc(Br)c3)C2=O)cc1 (stereo not drawn) | 0.983
9 | O=C(N1CCN(c2ccccc2F)CC1)C1(c2cccs2)CCOCC1 | 9.24
10 | COC(=O)c1ccc(NC(=O)CC[NH+]2CCCCC2)cc1.[Cl-] | -2.55
11 | COC(=O)[C@@]12CCCCN1[C@H](c1ccc(-c3ccc(F)cc3)cc1)[C@@H]1C(=O)N(C)C(=O)[C@@H]12.O=C(O)C(F)(F)F | -9.26
12 | Cn1c(CN2CCCC2)nc2cc(NC(=O)Nc3ccccc3)ccc21 | 7.65
13 | COc1ccc(C2C(C(=O)c3sc(C)nc3C)=C(O)C(=O)N2CCN(C)C)cc1OC (stereo not drawn) | 17.4
14 | CCC(OC(=O)c1cc2sccc2n1C)C(=O)NCc1ccco1 (stereo not drawn) | -5.19
15 | COc1ccc(CCNC(=O)CCC(=O)n2ncc3cc(C)ccc32)cc1OC | 6.89
16 | CCOC(=O)c1oc2cc(O)ccc2c(=O)c1-c1ccccc1OC | 1.12
17 | COc1ccc(NC(=O)c2ccc(COc3ccccc3Br)o2)cc1OC | 22.3
18 | C/C(=N\NC(=O)c1nonc1N)c1cccs1 | 3.33
19 | O=C(O)CCC(=O)N1CCN(c2ncccc2C(F)(F)F)CC1 | 11.6
20 | COc1ccc(C(=O)NC(=S)Nc2ccc3[nH]c(=O)[nH]c3c2)c(OC)c1 | 16.5
21 | COc1ccc(C(=O)NC(CC(C)C)C(=O)O)cc1 (stereo not drawn) | 6.42
22 | CCOc1ccc2nc(NC(=O)c3ccc(OC)c(S(=O)(=O)N4CCOCC4)c3)sc2c1 | -7.15
23 | Cc1ccc([N+](=O)[O-])cc1S(=O)(=O)Nc1ccc(-c2ccc(N3CCCC3)nn2)cc1 | 8.17
24 | O=C(NC(O)C(=O)c1ccccc1)c1ccc(F)cc1 (stereo not drawn) | 7.88
25 | CCCNC(=O)c1ccccc1NC(=O)C1=CSCCO1 | 17.7
26 | O=[N+]([O-])c1ccccc1N/N=C\c1ccccc1Cl | 17
27 | Cc1onc(-c2ccccc2)c1C(=O)N1CCN(S(=O)(=O)c2ccc(Cl)cc2)CC1 | -1.88

Row | SMILES | hERG current change (%, negative = inhibition) at 1uM [%]
28 | Cc1ccccc1C(=O)Nc1ccnn1C1CCN(Cc2cnn(C(C)C)c2)CC1 | -27.3
29 | C=CCNCCCCOc1c(Cl)cc(C)cc1Br.O=C(O)C(=O)O | 3.62
30 | CCCOc1ccc(-c2cn3ccccc3n2)cc1[N+](=O)[O-] | 1.87
31 | O=C(CN(Cc1ccc2c(c1)OCO2)C(=O)CNS(=O)(=O)c1ccccc1)NCC1CCCO1 (stereo not drawn) | 6.06
32 | Cc1ccc(NC(=O)CSc2ccc(C(N)=O)cc2[N+](=O)[O-])cc1 | 10.2
33 | O=C(NC1CCCCC1)C1CCN(S(=O)(=O)c2cccc3nonc23)CC1 | 11
34 | Cc1cc(C)n(-c2ccc(-n3ccnc3)nn2)n1 | 1.33
35 | O=C(c1ccc(Cl)c(Cl)c1)N1CCN(Cc2ccc3c(c2)OCO3)CC1 | 0.862
36 | CN1CCN(CC(=O)Nc2c(C(=O)C3CC3)oc3ccccc23)CC1 | -16.9
37 | COc1cc(C(c2sc3nc(C)nn3c2O)N2CC(C)CC(C)C2)cc(OC)c1OC (stereo not drawn) | 14.7
38 | Cc1cc(C(=O)CSc2n[nH]c(N)n2)c(C)n1-c1ccc(F)cc1 | 5.48
39 | Cc1ccc[n+](CC(=O)c2ccc(Br)cc2)c1C.[Br-] | 10.7
40 | CCOC(=O)C(C)Sc1nc(-c2ccccc2)nc2ccccc12 (stereo not drawn) | 15.9
41 | Cc1ccccc1OCC(=O)Nc1ccc2c(c1)COC2=O | 5.94
42 | CNc1oc(-c2ccc(Cl)cc2)nc1P(=O)(c1ccccc1)c1ccccc1 | 8.15
43 | O=C(NNC(=O)C1C2CCC(C2)C1C(=O)O)c1ccc(Cl)cc1 (stereo not drawn) | 18.7
44 | O=C(O)CC(NS(=O)(=O)c1cccc2nsnc12)c1ccc(F)cc1 (stereo not drawn) | 9.14
45 | CCc1nn(CC(=O)NCCCN(CC)Cc2ccccc2)c(=O)c2cc3sccc3n12 | -17.2
46 | CC(C)(C)c1ccc(C(=O)OCC(=O)Nc2sc3c(c2C#N)CCC3)cc1 | -1.3
47 | Cn1cnnc1SCCNS(=O)(=O)c1cccc([N+](=O)[O-])c1 | 0.611
48 | Cc1cc2c3c(c1)C(C)CC(C)(C)N3C(=O)C2=C(C#N)C#N (stereo not drawn) | 9.79
49 | CCC(=O)c1ccc(OCC(=O)Nc2ccc3nc(C)sc3c2)cc1 | 11.2
50 | O=C(Cc1ccc([N+](=O)[O-])cc1)Nc1nnc(C2CC2)s1 | 15
51 | N#C/C(=C(/O)COc1cccc2ccccc12)c1nc2ccccc2[nH]1 | -1.15
52 | Cc1ccc(C(=O)NCC(=O)NCC(=O)OCc2ccc(F)cc2)cc1 | 12.8
53 | CN(CCc1ccccn1)C(=O)Nc1cc(Cl)cc(Cl)c1 | 4.34
54 | COc1cccc(-c2cc(C(=O)NCc3ccco3)c3ccccc3n2)c1 | 11.2
